The supplement of paper PMC3334620
In all, about 33,000 sequences were measured (“E-score (-0.5 to 0.5)”: median about -0.011, highest 2% from about 0.28 on). The list shows a part of the results.

Biological target: T1, Gcr1 (UniProt P07261)
T1 sequence: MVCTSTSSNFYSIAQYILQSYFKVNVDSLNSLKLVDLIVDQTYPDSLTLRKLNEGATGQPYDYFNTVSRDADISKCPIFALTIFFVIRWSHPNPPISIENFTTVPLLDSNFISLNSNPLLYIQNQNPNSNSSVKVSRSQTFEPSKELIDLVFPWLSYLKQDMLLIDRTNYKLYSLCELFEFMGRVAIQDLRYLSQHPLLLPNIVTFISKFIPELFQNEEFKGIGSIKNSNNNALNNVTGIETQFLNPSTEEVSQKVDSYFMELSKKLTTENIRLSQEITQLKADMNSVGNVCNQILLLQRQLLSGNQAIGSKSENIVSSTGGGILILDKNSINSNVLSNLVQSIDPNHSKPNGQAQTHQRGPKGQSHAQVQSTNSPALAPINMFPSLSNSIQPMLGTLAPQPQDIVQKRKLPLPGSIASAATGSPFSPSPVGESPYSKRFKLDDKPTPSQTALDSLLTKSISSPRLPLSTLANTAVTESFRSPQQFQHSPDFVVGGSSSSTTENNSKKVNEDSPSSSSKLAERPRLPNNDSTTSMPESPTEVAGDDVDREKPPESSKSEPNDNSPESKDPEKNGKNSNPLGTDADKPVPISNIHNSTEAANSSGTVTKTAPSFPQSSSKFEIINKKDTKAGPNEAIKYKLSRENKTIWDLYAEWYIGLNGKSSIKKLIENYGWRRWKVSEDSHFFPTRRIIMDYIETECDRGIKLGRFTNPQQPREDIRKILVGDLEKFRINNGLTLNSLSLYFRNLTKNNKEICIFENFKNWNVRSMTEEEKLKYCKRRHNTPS
Assay: PBM E-score (8-mer binding enrichment) (E-score (-0.5 to 0.5)); higher = stronger / more preferred TF binding; most listed sequences are background and not binding sites
Conditions: protein concentration: 100 nM; construct: GST-full length
Method: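 Universal 'all 10-mer' protein binding microarrays (Agilent AMADID 015681) probed with GST-tagged S. cerevisiae TFs (full-length or DBD) made by in vitro transcription/translation (PURExpress), about 100-200 nM. Bound TF was detected with fluorescent anti-GST. Each ungapped 8-mer (which stands for itself and its reverse complement) is scored by the PBM enrichment score (E-score), a modified Wilcoxon-Mann-Whitney statistic from -0.5 to +0.5, computed with the Universal PBM Analysis Suite. Scale: above 0.35 generally sequence-specific binding.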

Sequence | PBM E-score
TGCCCCCA | -0.142
TACAGTCA | -0.141
AACGAACC | -0.151
AACCAATA | 0.172
AAGTGTTG | 0.0206
CCCCTCCG | -0.0427
AGTACATC | -0.0279
ACAAAGTA | -0.0207
ATATTGCC | -0.0967
AACACACC | -0.0463
AGGCGCCC | 0.384
CGACAGTA | -0.221
AGTGAATA | 0.106
GGCGCAAC | 0.161
AAAGTAAC | -0.0434
ACCTCTAG | -0.0718
AGTAATAC | 0.0146
CGGCTGGA | 0.0497
ACGCCCAA | 0.202
AACTGTGC | -0.181
CAAGCTCC | -0.133
ACCAGTGC | -0.201

Sequence | PBM E-score
CGGTAAGA | -0.142
AAGTGAGT | -0.147
CCCACGGG | 0.0888
TCAGAACA | -0.0507
GCTGTCAA | -0.165
AAGGAAGG | -0.0778
CACTAGTC | -0.017
GTGCACTA | -0.146
GCGAGTAA | -0.11
TCCCCAGA | 0.131
ATAGACCA | 0.0138
ATCACCGA | -0.229
TAAGTATA | 0.0543
AATTCCCT | -0.088
GGCACCAC | 0.249
CATTGCGC | -0.106
ATCGAGCG | -0.167
TCTACCAA | -0.091
ACCCTGGA | 0.00042
AGGGCAGA | -0.172
AATGCAAT | -0.303
GGTTGTTA | 0.136

Sequence | PBM E-score
CGAACCAG | 0.074
CCCTGTCA | -0.0788
AGTCTTCG | -0.124
GGGAACGA | -0.0791
AATCGGAT | 0.0214
CCAGTCGA | 0.115
AAAATTCA | 0.15
CAAAGGTC | -0.126
ACGGTTGA | -0.135
AGTACCCG | -0.074
ACAGACCT | -0.224
GATCTACA | 0.147
GGGTTGGA | -0.0248
CATCAAAC | -0.113
CAGTGGGA | 0.0976
GACTGGAA | 0.325
AGTAAGAT | 0.0416
AACTCTCA | -0.0547
CTCCTGGC | 0.0962
AAATAGTG | 0.203
CTTACGGA | 0.12
CGGAGAAG | -0.0611

Sequence | PBM E-score
CCCACAAA | 0.305
CGCGCTGC | 0.225
CCCGCTGC | 0.0882
GCGCTGCA | 0.141
GTCCCGCA | 0.0217
CTGGAACA | -0.0357
CAGATAAG | 0.0134
GGTATTCA | 0.0919
CACCTGTC | -0.112
AGCACTCC | 0.0725
ACAGGGCA | -0.222
GTCTTATA | -0.00394
CTCGATCA | -0.0217
ACGCGAAA | -0.0332
GACTCACA | -0.206
CTGAACAG | 0.049
AGTCACTC | -0.0527
AGTTGATA | -0.0564
GACGCTAA | -0.0744
GCACTGCA | -0.362
ATGGGATC | 0.19
CCCCACCA | 0.254

Sequence | PBM E-score
AGAGTCGA | -0.21
CTGACGAA | -0.103
CGTCCTCC | -0.035
AGCTAAAC | -0.126
CGTTATGA | -0.0359
AAAACTGT | -0.134
AAACTTAC | 0.0163
ATCTAGTC | 0.0902
GCCGGCTA | -0.145
CGGTCACG | -0.114
ACGGTCCC | -0.0433
AGCAAACC | -0.216
AGCAGCTC | 0.16
ATGGGTCC | 0.155
AGGGCTAC | -0.0252
ATATCCCC | -0.108
GGGTCACC | 0.145
AGCGGGAG | -0.0166
CAGATCGC | -0.199
GCGGAAGA | -0.195
CGCTCATC | 0.111
